# Laboratory results from the supplement of paper PMC3334620.
# The full ranking holds about 33,000 sequences; the median of “E-score (-0.5 to 0.5)” is about -0.021, and the highest 2% start at about 0.32. This is one part of the list.
# Target: T1, Zap1 (UniProt P47043)
# T1 sequence: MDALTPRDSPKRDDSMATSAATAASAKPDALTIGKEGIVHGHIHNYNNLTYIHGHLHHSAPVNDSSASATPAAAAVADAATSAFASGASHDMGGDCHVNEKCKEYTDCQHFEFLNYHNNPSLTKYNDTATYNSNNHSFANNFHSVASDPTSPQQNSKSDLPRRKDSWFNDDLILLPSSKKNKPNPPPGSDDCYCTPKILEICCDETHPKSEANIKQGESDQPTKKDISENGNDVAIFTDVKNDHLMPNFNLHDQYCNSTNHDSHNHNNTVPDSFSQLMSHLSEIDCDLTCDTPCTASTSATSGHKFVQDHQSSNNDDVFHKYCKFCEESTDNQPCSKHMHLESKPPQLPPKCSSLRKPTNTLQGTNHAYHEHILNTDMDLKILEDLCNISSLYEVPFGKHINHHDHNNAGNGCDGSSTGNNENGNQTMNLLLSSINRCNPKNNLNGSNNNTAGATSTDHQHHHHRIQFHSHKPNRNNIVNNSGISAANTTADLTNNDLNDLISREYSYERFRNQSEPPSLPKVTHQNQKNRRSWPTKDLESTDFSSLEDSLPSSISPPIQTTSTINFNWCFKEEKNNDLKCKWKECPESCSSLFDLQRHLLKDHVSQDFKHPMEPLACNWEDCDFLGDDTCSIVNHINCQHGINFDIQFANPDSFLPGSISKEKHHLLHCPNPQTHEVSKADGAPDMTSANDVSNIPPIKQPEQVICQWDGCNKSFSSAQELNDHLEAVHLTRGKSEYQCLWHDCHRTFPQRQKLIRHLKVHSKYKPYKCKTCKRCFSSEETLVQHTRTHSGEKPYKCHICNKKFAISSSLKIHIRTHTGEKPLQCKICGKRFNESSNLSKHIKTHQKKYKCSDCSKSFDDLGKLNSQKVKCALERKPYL
# Test: PBM E-score (8-mer binding enrichment) (E-score (-0.5 to 0.5)); higher = stronger / more preferred TF binding; most listed sequences are background and not binding sites
# Details: protein concentration: 200 nM; construct: GST-full length
# How it was run: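 PURExpress in vitro transcription/translation supplied GST-tagged yeast transcription factors, either full-length or DNA-binding domain. Applied at about 100-200 nM to universal all-10-mer Agilent arrays double-stranded by primer extension, the bound protein was detected with fluorescent anti-GST. E-scores, modified Wilcoxon-Mann-Whitney statistics, were given by the Universal PBM Analysis Suite to ungapped eight-base words pooled with their reverse complements after masliner normalisation.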
row,Sequence,PBM E-score
1,ACTGCGTG,-0.165
2,GCAATCTA,0.0798
3,GCAGCTCA,-0.357
4,TGATAACA,0.135
5,CAGCGATC,0.0433
6,GGAACGCC,-0.146
7,ACGGCCTG,-0.0565
8,CCACCTGA,0.0282
9,AAAATCAA,-0.0641
10,AACACCGC,0.134
11,ATCACTAC,0.108
12,TGTCTTAA,0.0721
13,AGTTCGGA,-0.0683
14,ATTTGCAA,0.0656
15,GTTTAATA,0.229
16,AAGCCGAA,-0.0133
17,ACTGACTA,-0.152
18,ACCTCTAT,0.293
19,CCGTACCC,0.275
20,CGCCGCCA,-0.0727
21,AAAACCTA,0.279
22,AAGTAAAA,0.0649
23,AATCCAAG,0.096
24,TACCTATA,0.337
25,TCCGGACA,0.00238

row,Sequence,PBM E-score
1,GCTCGTAA,0.12
2,ACTCGGCA,-0.191
3,GCCACTAA,0.112
4,GCACACAA,-0.00415
5,AAGTGTCA,-0.175
6,AAGTGAAC,0.149
7,AGGGAGAT,-0.267
8,CAAATGTG,0.18
9,GTGCTCCA,-0.0916
10,ACAAAAGC,-0.0458
11,ATGATACC,0.144
12,AACGCTGC,-0.0724
13,AACCACAC,0.268
14,TATCAATA,0.188
15,AGTAAAAT,0.198
16,ATTGGAAA,0.0719
17,GCCTAACA,-0.0533
18,CAATGCAA,0.0301
19,GTACCTTA,0.265
20,CGGAGACC,0.0387
21,CTGACAGA,-0.0473
22,CTATTAAG,0.0621
23,AGCCGCCA,-0.214
24,TCACGGAA,0.00369
25,AAGCATCC,-0.28

row,Sequence,PBM E-score
1,CGGGCTCA,-0.323
2,GTGTTACA,0.0219
3,AAACGCTA,-0.106
4,GACGACAA,0.0939
5,AGGCGATA,-0.157
6,GCCGTAGC,-0.262
7,CGTCAGAG,-0.0923
8,GGGCCTAC,-0.213
9,CACTGGCG,-0.0169
10,ATGTCCCG,-0.134
11,GCACCACC,-0.0172
12,CCTACAAA,0.163
13,ACTGTGCT,-0.0927
14,AGACCCGG,0.0904
15,CGGTGAGA,0.0498
16,ACCCGAGA,0.257
17,CAATACAC,0.106
18,CCGAAGTA,0.0529
19,AGTTTTAT,0.191
20,CGCCATAC,0.0793
21,TAGAAGAA,-0.0192
22,AATCAACT,0.0271
23,CAAATAAC,0.322
24,AACCATTC,0.247
25,ACATCGCC,-0.178

row,Sequence,PBM E-score
1,CAATGCCA,-0.006
2,CGTTCTTA,0.056
3,CGACATAG,-0.0859
4,TGGCATAA,0.173
5,TCCTGCAA,-0.00346
6,CGTACGCA,-0.0893
7,GGGGCGAC,-0.0536
8,TGACTGCA,-0.134
9,CTGGAGAC,-0.0459
10,AAAAATTG,0.067
11,AAAGGACG,0.0187
12,TGCATCAA,0.122
13,ATATAAAG,0.149
14,GGCGCATA,-0.124
15,ACTGCCTC,-0.215
16,CAAGACCG,0.0376
17,CTCTGAAG,-0.225
18,CATGAGAC,-0.0938
19,ATCATCCA,-0.0323
20,AACCGTCT,0.0911
21,TGGCCTAA,-0.155
22,CACATCGC,-0.148
23,AAAACGTC,0.062
24,AAAGCCAC,0.00787
25,AGGCCCGC,-0.216

row,Sequence,PBM E-score
1,GATAGTAA,0.00805
2,GTCAAAAC,0.148
3,TATGTACA,0.14
4,CCCACTAG,-0.335
5,GTGAGCTA,-0.0465
6,CGTAAGCC,-0.0921
7,GTAGGTGA,0.0614
8,TCAGATGA,0.0541
9,AGTAATAG,0.0318
10,CTCGACTA,-0.0884
11,CGATGGCC,0.0312
12,AGGGGCCA,0.183
13,CAGGGCAC,-0.0382
14,GCAGTACC,0.262
15,GCCACAGC,-0.347
16,TACACGGA,0.0784
17,ATCTGTAG,-0.132
18,AACTCAAA,0.138
19,AAGCGACG,-0.225
20,TATCTAAA,0.0386
21,AAAAAGCC,0.191
22,AGATTGTA,-0.0381
23,GGTTTCGA,0.165
24,ATGGGGAG,-0.108
25,CCGGTAAG,0.199

row,Sequence,PBM E-score
1,GCGCTCTA,-0.0336
2,TAACGCGA,0.0696
3,GATCGCGA,-0.092
4,TACGGAGA,-0.02
5,CTGTACAA,-0.0897
6,TGACGAAA,0.111
7,AGCGAGAA,-0.249
8,ACGTATCG,-0.0607
9,CGCAGTGC,-0.113
10,TCAACAGA,0.128
11,ACGTGCTC,-0.398
12,CAGAAGCA,-0.0791
13,ATACTAAC,0.0277
14,ACGGCTCA,-0.171
15,CCCGGGCG,-0.0361
16,ACGTACTG,-0.0495
17,CACGTAGG,-0.0104
18,CGGAATTC,-0.128
19,ACCGTGCC,-0.084
20,CTTATTAC,0.062
21,CTGCGAGA,-0.241
22,ACCTACTG,-0.0042
23,CGTGCACC,0.00545
24,ACTGCTGG,-0.288
25,GATCACCC,0.241

row,Sequence,PBM E-score
1,ACAATTCA,0.0233
2,TCCTGTAA,0.128
3,ACACCTGC,-0.0597
4,ATGTATTC,-0.0708
5,CTCGGCCA,-0.0669
6,CTTATAAC,0.302
7,ATACAGCG,-0.178
8,ACGAGTAA,0.165
9,GCTCAGTA,0.0407
10,AAAGTTTG,0.0973
11,CTACCCAC,0.0326
12,TATCATGA,0.202
13,GACCCGAC,0.119
14,CCAAACGG,-0.0146
15,ACCTTATA,0.339
16,ACCTAGAA,0.17
17,ATTTATAC,0.275
18,AATTGGCC,-0.083
19,GCCTTCCA,-0.171
20,CGCAGGTA,0.164
21,AGCCGGAC,0.0181
22,CGCCCCCC,-0.358
23,GGGGAGAA,-0.0462
24,CGTTACTC,0.126
25,CCGGTTAA,0.261

row,Sequence,PBM E-score
1,GTAAAGTA,0.0618
2,AACCAGAG,0.191
3,CAAGTGTC,-0.0245
4,GCACGACC,0.122
5,CCAATGTA,-0.00387
6,ATTCCCTC,-0.0432
7,AAGCGGGT,-0.0261
8,GAACAGAA,-0.0216
9,CCTTAAGA,0.155
10,ATATAGAG,-0.19
11,CAGAATCG,-0.163
12,ACCTCCTA,-0.155
13,CGACATAC,-0.101
14,AGTTGGAT,-0.0598
15,AGTTACAC,0.0701
16,GCAGGATA,-0.0914
17,GACGGCAC,-0.244
18,ACACCGTG,-0.191
19,AATGGCGA,-0.137
20,CCGGTTGC,0.115
21,GTGCTTTA,-0.0608
22,CACACATG,-0.189
23,GAGAGCGA,-0.186
24,AATTCGTA,0.0679
25,CCTTTGCC,0.00962

row,Sequence,PBM E-score
1,GGTGTGAA,0.174
2,CGTTGCAG,-0.0966
3,CCTAATAG,0.0191
4,ACATTAGA,-0.0645
5,GGCTTGAA,0.00086
6,CCAACCCG,0.148
7,CCTAGCTC,-0.139
8,TAATCGAA,0.13
9,AGACCCTG,0.253
10,AACATGCA,-0.0983
11,GGTTTTAA,0.214
12,CCACTGCA,-0.116
13,CAAGATGG,-0.0274
14,CAAATTGG,0.172
15,AAATGGGA,-0.0864
16,GCGAAAAA,0.179
17,AGACGGCC,-0.15
18,CACTTTGG,-0.0421
19,TCGATAAA,0.062
